Laboratory results: the supplement of paper PMC8728848
The list shows a part of the results.

Assays:
Assay in all cases: glycan array binding signal (z-score within array); higher = stronger binding
Settings in all cases: glycan notation: IUPAC condensed, linker removed
[1] = molecular target: GalNAc(b1-4)GlcNAc
How it was run: (§1)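 Glycan array binding is given as a within-array Z-score, which can be read as non-binding when negative. The arrays, 3228 of them, came from the Consortium for Functional Glycomics database and were retained only where the protein sequence was available. Z-scores were averaged across arrays of the same protein sequence at different concentrations or buffers and across linkers.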

[2] = molecular target: GalNAc(b1-4)GlcNAc(b1-2)Man
How it was run: as §1

[3] = molecular target: GalNAc(b1-4)GlcNAc(b1-2)Man(a1-3)[GalNAc(b1-4)GlcNAc(b1-2)Man(a1-6)]Man(b1-4)GlcNAc(b1-4)GlcNAc
How it was run: as §1

[4] = molecular target: GalNAc(b1-4)GlcNAc(b1-3)GalNAc(b1-4)GlcNAc
How it was run: as §1

[5] = molecular target: GalNAc(b1-4)GlcNAc6S
How it was run: as §1

[6] = molecular target: GalNAc(b1-6)GalNAc
How it was run: as §1

[7] = molecular target: GalNAc3S(b1-4)GlcNAc
How it was run: as §1

[8] = molecular target: GalNAc3S(b1-4)GlcNAc3S
How it was run: as §1

[9] = molecular target: GalNAc3S(b1-4)[Fuc(a1-3)]GlcNAc
How it was run: as §1

[10] = molecular target: GalNAc4S6S(b1-4)GlcNAc
How it was run: as §1

[11] = molecular target: GalNAc6S(b1-4)GlcNAc
How it was run: as §1

[12] = molecular target: Glc(a1-4)Glc
How it was run: as §1

[13] = molecular target: Glc(a1-4)Glc(a1-4)Glc(a1-4)Glc
How it was run: as §1

[14] = molecular target: Glc(a1-6)Glc(a1-6)Glc
How it was run: as §1

[15] = molecular target: Glc(a1-6)Glc(a1-6)Glc(a1-6)Glc
How it was run: as §1

[16] = molecular target: Glc(b1-4)Glc
How it was run: as §1

[17] = molecular target: Glc(b1-6)Glc
How it was run: as §1

[18] = molecular target: GlcA(b1-3)Gal
How it was run: as §1

[19] = molecular target: GlcA(b1-3)GlcNAc
How it was run: as §1

[20] = molecular target: GlcA(b1-6)Gal
How it was run: as §1

[21] = molecular target: GlcA3S(b1-3)Gal(b1-4)GlcNAc(b1-2)Man
How it was run: as §1

[22] = molecular target: GlcA3S(b1-3)Gal(b1-4)GlcNAc(b1-3)Gal(b1-4)Glc
How it was run: as §1

[23] = molecular target: GlcNAc(a1-3)Gal(b1-4)GlcNAc
How it was run: as §1

[24] = molecular target: GlcNAc(a1-4)Gal(b1-3)GlcNAc
How it was run: as §1

[25] = molecular target: GlcNAc(a1-4)Gal(b1-4)GalNAc
How it was run: as §1

[26] = molecular target: GlcNAc(a1-4)Gal(b1-4)GlcNAc
How it was run: as §1

[27] = molecular target: GlcNAc(a1-4)Gal(b1-4)GlcNAc(b1-3)Gal(b1-4)Glc
How it was run: as §1

[28] = molecular target: GlcNAc(a1-4)Gal(b1-4)GlcNAc(b1-3)Gal(b1-4)GlcNAc
How it was run: as §1

[29] = molecular target: GlcNAc(a1-4)Gal(b1-4)GlcNAc(b1-3)Gal(b1-4)GlcNAc(b1-3)Gal(b1-4)GlcNAc
How it was run: as §1

[30] = molecular target: GlcNAc(a1-4)Gal(b1-4)GlcNAc(b1-3)Gal(b1-4)[Fuc(a1-3)]GlcNAc(b1-3)Gal(b1-4)[Fuc(a1-3)]GlcNAc
How it was run: as §1

[31] = molecular target: GlcNAc(a1-6)Gal(b1-4)GlcNAc
How it was run: as §1

[32] = molecular target: GlcNAc(b1-2)Gal(b1-3)GalNAc
How it was run: as §1

[33] = molecular target: GlcNAc(b1-2)Man(a1-3)[GlcNAc(b1-2)Man(a1-6)]Man(b1-4)GlcNAc(b1-4)GlcNAc
How it was run: as §1

[34] = molecular target: GlcNAc(b1-2)Man(a1-3)[GlcNAc(b1-2)Man(a1-6)]Man(b1-4)GlcNAc(b1-4)[Fuc(a1-6)]GlcNAc
How it was run: as §1

[35] = molecular target: GlcNAc(b1-2)Man(a1-3)[GlcNAc(b1-4)][GlcNAc(b1-2)Man(a1-6)]Man(b1-4)GlcNAc(b1-4)GlcNAc
How it was run: as §1

[36] = molecular target: GlcNAc(b1-2)Man(a1-3)[GlcNAc(b1-4)][GlcNAc(b1-2)Man(a1-6)]Man(b1-4)GlcNAc(b1-4)[Fuc(a1-6)]GlcNAc
How it was run: as §1

[37] = molecular target: GlcNAc(b1-2)[GlcNAc(b1-4)]Man(a1-3)[GlcNAc(b1-2)Man(a1-6)]Man(b1-4)GlcNAc(b1-4)GlcNAc
How it was run: as §1

[38] = molecular target: GlcNAc(b1-2)[GlcNAc(b1-4)]Man(a1-3)[GlcNAc(b1-4)][GlcNAc(b1-2)Man(a1-6)]Man(b1-4)GlcNAc(b1-4)GlcNAc
How it was run: as §1

[39] = molecular target: GlcNAc(b1-2)[GlcNAc(b1-4)]Man(a1-3)[GlcNAc(b1-4)][GlcNAc(b1-2)[GlcNAc(b1-6)]Man(a1-6)]Man(b1-4)GlcNAc(b1-4)GlcNAc
How it was run: as §1

[40] = molecular target: GlcNAc(b1-2)[GlcNAc(b1-4)]Man(a1-3)[GlcNAc(b1-4)][GlcNAc(b1-2)[GlcNAc(b1-6)]Man(a1-6)]Man(b1-4)GlcNAc(b1-4)[Fuc(a1-6)]GlcNAc
How it was run: as §1

[41] = molecular target: GlcNAc(b1-2)[GlcNAc(b1-6)]Man(a1-6)[GlcNAc(b1-2)Man(a1-3)]Man(b1-4)GlcNAc(b1-4)GlcNAc
How it was run: as §1

[42] = molecular target: GlcNAc(b1-2)[GlcNAc(b1-6)]Man(a1-6)[GlcNAc(b1-2)Man(a1-3)]Man(b1-4)GlcNAc(b1-4)[Fuc(a1-6)]GlcNAc
How it was run: as §1

[43] = molecular target: GlcNAc(b1-2)[GlcNAc(b1-6)]Man(a1-6)[GlcNAc(b1-4)][GlcNAc(b1-2)Man(a1-3)]Man(b1-4)GlcNAc(b1-4)GlcNAc
How it was run: as §1

[44] = molecular target: GlcNAc(b1-3)Fuc
How it was run: as §1

[45] = molecular target: GlcNAc(b1-3)Gal
How it was run: as §1

B1: Banana lectin (Musa acuminata) (protein)
chain: MNGAIKVGAWGGNGGSAFDMGPAYRIISVKIFSGDVVDAVDVTFTYYGKTETRHFGGSGGTPHEIVLQEGEYLVGMKGEFGNYHGVVVVGKLGFSTNKKSYGPFGNTGGTPFSLPIAAGKISGFFGRGGDFIDAIGVYLEP
For B1, the “glycan array binding signal (z-score)” value [1] was -0.192, the “glycan array binding signal (z-score)” value [2] was -0.193 and the “glycan array binding signal (z-score)” value [3] was -0.19. For the same binder, the “glycan array binding signal (z-score)” value [4] was -0.195, the “glycan array binding signal (z-score)” value [5] was -0.195 and the “glycan array binding signal (z-score)” value [6] was -0.195. For the same binder, the “glycan array binding signal (z-score)” value [7] was -0.193, the “glycan array binding signal (z-score)” value [8] was -0.192 and the “glycan array binding signal (z-score)” value [9] was -0.191. For the same binder, the “glycan array binding signal (z-score)” value [10] was -0.193, the “glycan array binding signal (z-score)” value [11] was -0.19 and the “glycan array binding signal (z-score)” value [12] was -0.146. For the same binder, the “glycan array binding signal (z-score)” value [13] was -0.195, the “glycan array binding signal (z-score)” value [14] was -0.187 and the “glycan array binding signal (z-score)” value [15] was -0.191. The “glycan array binding signal (z-score)” value [16] was -0.194, the “glycan array binding signal (z-score)” value [17] was -0.098 and the “glycan array binding signal (z-score)” value [18] was -0.191. For the same binder, the “glycan array binding signal (z-score)” value [19] was -0.187, the “glycan array binding signal (z-score)” value [20] was -0.194 and the “glycan array binding signal (z-score)” value [21] was -0.196. The “glycan array binding signal (z-score)” value [22] was -0.195, the “glycan array binding signal (z-score)” value [23] was 0.764 and the “glycan array binding signal (z-score)” value [24] was 0.003. The “glycan array binding signal (z-score)” value [25] was -0.174, the “glycan array binding signal (z-score)” value [26] was -0.097 and the “glycan array binding signal (z-score)” value [27] was -0.144. The “glycan array binding signal (z-score)” value [28] was -0.098, the “glycan array binding signal (z-score)” value [29] was 0.058 and the “glycan array binding signal (z-score)” value [30] was -0.075. For the same binder, the “glycan array binding signal (z-score)” value [31] was -0.189, the “glycan array binding signal (z-score)” value [32] was -0.194 and the “glycan array binding signal (z-score)” value [33] was 0.41. The “glycan array binding signal (z-score)” value [34] was -0.15, the “glycan array binding signal (z-score)” value [35] was -0.198 and the “glycan array binding signal (z-score)” value [36] was -0.193. For the same binder, the “glycan array binding signal (z-score)” value [37] was -0.188, the “glycan array binding signal (z-score)” value [38] was -0.196 and the “glycan array binding signal (z-score)” value [39] was -0.196. For the same binder, the “glycan array binding signal (z-score)” value [40] was -0.196, the “glycan array binding signal (z-score)” value [41] was -0.17 and the “glycan array binding signal (z-score)” value [42] was -0.125. The “glycan array binding signal (z-score)” value [43] was -0.2, the “glycan array binding signal (z-score)” value [44] was -0.192 and the “glycan array binding signal (z-score)” value [45] was -0.194.
